The values below come from PubChem BioAssay AID485344 (National Center for Advancing Translational Sciences (NCATS), 2010).

In general, inhibition refers to the relative decrease from the control value, in per cent.

The structures appear in SMILES notation. Values joined by “and” are separate entries in the source; they are usually repeats but may differ in a detail not shown here. Equal entries are not always repeated. About 6,900 (2%) of roughly 340,000 compounds were called active. Rule as the data show it: active = inhibition above about 30%; inactive = below that, where a call was filed. This is a selection; strong and weak results do not stand in their true shares. The source gives no active or inactive call for entries shown without one.

This test concerns the target D(2) dopamine receptor (Homo sapiens) (UniProt P14416). Nature of the test: HTS Assay for Allosteric Antagonists of the Human D2 Dopamine Receptor: Primary Screen for Antagonists. Also: 0% is about no effect. The following applies: HEK293 TREx D2 cells, calcium flux, dopamine EC80; at 10 µM; stronger effect = higher value. In short, it runs like this: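 Antagonism is scored as inhibition of an EC80 dopamine-evoked calcium signal in a force-coupled, tetracycline-inducible HEK293 T-REx D2 line, with compound present 180 s before agonist.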
Sequence of UniProt P14416 (P14416 whole entry, looked up): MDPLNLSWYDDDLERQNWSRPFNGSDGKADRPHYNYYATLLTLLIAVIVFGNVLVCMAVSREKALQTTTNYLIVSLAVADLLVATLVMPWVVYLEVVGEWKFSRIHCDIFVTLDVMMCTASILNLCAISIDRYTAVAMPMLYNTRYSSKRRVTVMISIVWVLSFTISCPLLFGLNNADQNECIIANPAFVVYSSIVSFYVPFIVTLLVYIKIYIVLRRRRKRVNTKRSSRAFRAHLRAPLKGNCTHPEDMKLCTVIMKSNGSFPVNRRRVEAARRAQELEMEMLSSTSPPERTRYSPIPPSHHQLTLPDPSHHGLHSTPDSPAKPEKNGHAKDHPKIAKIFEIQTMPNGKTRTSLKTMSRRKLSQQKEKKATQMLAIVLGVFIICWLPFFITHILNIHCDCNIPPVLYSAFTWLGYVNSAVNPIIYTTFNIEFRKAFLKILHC
A general note: A change in cytosolic calcium serves as a functional read-out for many receptors and channels.
Regarding `O=C(CSc1nc(=O)[nH]c2c1CCCC2)NCc1ccc(Cl)cc1`, the inhibition was -4.15%.

`CCOC(=O)c1c(NC(=O)/C=C/c2ccc(OC)cc2)sc2c1CCC(C)C2` (stereo not given): the inhibition came out at 2.79%.

In the case of `Cc1ccccc1C(=O)Nc1sc2c(c1C(=O)N1CCC(C)CC1)CCCC2`, the inhibition was -15.9%.

On to `CC(=O)NNC(=O)CN1C(=O)/C(=C/c2ccccc2)SC1=S`, for which the inhibition is active: 73.7%.

Regarding `Cc1ccc(-c2csc(NC(=O)C[n+]3cc(-c4ccccc4)n4c3CCC4)n2)cc1`, the inhibition is active: 63.8%.

Regarding `CCN(CCCNC(=O)c1cc2c(=O)[nH]c3ccc(C)cc3c2s1)Cc1ccccc1`, the inhibition is -10.6%.

In the case of `Cc1cccc(CNC(=O)c2ccc(Cn3c(SCc4ccccc4)nc4cccnc43)cc2)c1`, the inhibition came out at 7.77%.

As to `CCc1ccc2oc(C(=O)Nc3nc(-c4ccccc4)ns3)c(C)c2c1`, the inhibition was -9.28%.

With `Cc1ccc(OC(C)C(=O)NCC2(N3CCOCC3)CCCCC2)cc1C` (stereo not given), the inhibition was -1.22%.

`COc1ccccc1CNC(=O)CCC1N=C2c3ccccc3N=C(SCC(=O)NCCc3ccccc3)N2C1=O` (stereo not given): the inhibition amounted to 2.75%.

Regarding `Cc1c(C(=O)N(C)C)sc2c1c(=O)n(-c1ccc(F)cc1)c(=O)n2CC(=O)N(C)c1ccccc1`, the inhibition was -17.5%.

As for `COc1ccc(Cl)cc1NC(=O)c1nc(S(C)(=O)=O)ncc1N(Cc1ccc(C)cc1)Cc1ccco1`, the inhibition is -5.56%.

Turning to `Cc1ccc(C)c(NC(=O)Cn2c(=O)oc3cc(S(=O)(=O)NCc4ccccc4)ccc32)c1`, the inhibition was -8.2%.

As for `Cc1cc2oc(C(=O)Nc3ccc(S(=O)(=O)Nc4onc(C)c4C)cc3)cc(=O)c2cc1C`, the inhibition was -8.97%.

Regarding `COc1ccc(CN2CCN(Cc3cccc(Oc4ccccc4)c3)CC2)c(OC)c1OC`, the inhibition is active: 33.9%.

In the case of `Cc1ccc(Cn2c(=O)c3cccnc3n(Cc3ccc(F)cc3)c2=O)cc1`, the inhibition was 8.4%.

For the molecule `CN(C)C(CNC(=S)Nc1cccc(Cl)c1)c1ccccc1` (stereo not given), the inhibition was active: 55%.

With `COc1cccc(N2CCN(c3ncc4c(n3)CCN(Cc3ccc(Br)cc3)C4)CC2)c1`, the inhibition is -0.436%.

Consider `Cc1cccc(Nc2nc3ccccc3n3c(N)nnc23)c1`, for which the inhibition was determined as 2.08%.

Consider `Cc1cc2n(n1)CCCN2C(=O)Nc1cccc(C)c1C`, for which the inhibition was -12.6%.

In the case of `Cc1cccc(CSCCNC(=O)CN(c2ccccc2)S(=O)(=O)N(C)C)c1`, the inhibition is -4.54%.

With `Cc1ccc(S(=O)(=O)c2cn(CC(=O)Nc3ccc4c(c3)OCO4)c3ccc(F)cc3c2=O)cc1`, the inhibition was -4.11%.

As to `CCSC1=NC2(CCN(C(=O)NC3CCCCC3)CC2)N=C1c1ccc(C)c(C)c1`, the inhibition was -1.49%.

Turning to `Cc1noc(C)c1S(=O)(=O)NCCc1csc2nc(-c3ccc(F)cc3)nn12`, the inhibition came out at 15.8%.

On to `COc1ccc(CC(=O)NNC(=O)c2cc(C)oc2C)cc1OC`, for which the inhibition is active: 32%.

Take `Cc1ccc(NC(=O)[C@H](Cc2ccccc2)N2Cc3ccccc3C2=O)cc1`: the inhibition was -15.3%.

Regarding `CCOC(=O)c1c(NC(=O)c2cc3ccccc3c(=O)o2)sc2c1CCCC2`, the inhibition was -15.8%.

For the molecule `COc1ccc(OC)c(NC(=O)CCc2c(C)nc3c(-c4ccccc4)c(C)nn3c2C)c1`, the inhibition is -12.7%.

Turning to `CCc1cccc(NC(=O)c2ccc3c(=O)n4nc(Nc5ccccc5OC)sc4nc3c2)c1`, the inhibition was 2.67%.

Consider `COc1nc(Oc2ccc(=O)n(-c3ccccc3)n2)nc(N(C)C)n1`, for which the inhibition is -13.9%.

`CCCN(CCC)CCNC(=O)c1cc(Sc2ccc(Cl)cc2)nc2ccccc12`: the inhibition came to 13.6%.

Regarding `COc1ccc(CNC(=O)C(=O)NCC(c2cccnc2)N2CCN(c3ccccc3F)CC2)cc1` (stereo not given), the inhibition turned out to be 22.7%.

Regarding `COCCn1c(C)cc(C(=O)COC(=O)c2ccc[nH]c2=O)c1C`, the inhibition is active: 62.3%.

`COc1ccc(-c2[nH]ncc2C(=O)NCc2ccccc2OC)cc1`: the inhibition worked out at 8.03%.

On to `Cc1ccc(NC(=O)CN(C)S(=O)(=O)c2cccc3nsnc23)c(C)c1`, for which the inhibition is -1.25%.

As to `COc1cc(C2C(=O)N(C3CCC(C)CC3)CC(=O)N2CCc2ccc(Cl)cc2)ccc1OC(C)C` (stereo not given), the inhibition worked out at 23.5%.

Take `CCOC(=O)Cc1csc(NC(=O)COc2ccc3ccccc3c2)n1`: the inhibition was active: 58.7%.

As to `COc1ccc(/C=N/NC(=O)c2nnn(-c3nonc3N)c2-c2cccc(OC)c2)cc1`, the inhibition is active: 34.2%.

With `Cc1cc(C)n(-c2nc3cc(Cl)c(Cl)cc3nc2Nc2c(C)cccc2C)n1`, the inhibition came out at 5.68%.

With `COc1ccc(/C=C2\CCCc3c2nc2ccccc2c3C(=O)O)cc1OC`, the inhibition was active: 31%.

Turning to `CCN(c1ccccc1)S(=O)(=O)c1nnc(NC(=O)COc2ccccc2F)s1`, the inhibition is 22.8%.

Turning to `Cn1cc(S(=O)(=O)N2CCCCC2)cc1C(=O)N1CCN(c2ccccc2F)CC1`, the inhibition was -4.3%.

Take `COc1cccc(-c2csc(-c3c(N)c(C(=O)c4ccccc4)n4ccccc34)n2)c1`: the inhibition was -0.43%.

With `O=C(COc1ccc2ccccc2c1)NNC(=O)c1ccccc1`, the inhibition was active: 47.6%.

In the case of `CCOC(=O)c1ccccc1NC(=O)Cn1c(=O)n(CCCC(=O)NCc2ccc3c(c2)OCO3)c(=O)c2ccccc21`, the inhibition is 14.8%.

On to `CCOC(=O)C(=O)Nc1nnc2n1CCS2`, for which the inhibition is -17.2%.

With `CCOc1ccc(Nc2ncnc3c2cnn3-c2ccc(F)cc2)cc1`, the inhibition came to 8.95%.

Turning to `Cc1nc2c(C(=O)NCc3ccccc3Cl)cnn2c(C)c1Cc1ccccc1`, the inhibition was 2.43%.

For `COc1ccc(NC(=O)Cn2c(=O)n(Cc3ccccc3)c(=O)c3oc4ccccc4c32)cc1Cl`, the inhibition came to 10.4%.

Consider `Cc1ccc(C)c(-n2cc(-c3ccccc3)nc2SCC(=O)Nc2ccccc2)c1`, for which the inhibition came to 4.14%.

In the case of `Cc1nc(N2CCCC2)ncc1C(=O)N1CCN(c2ccc(Cl)cc2)CC1`, the inhibition amounted to 16.3%.

Turning to `COc1ccc(CNC(=O)c2ccc(CSc3nc4ccncc4n3Cc3ccccc3F)cc2)cc1`, the inhibition came out at 5.28%.

Take `COc1ccc(NC(=O)C(C)n2nc(-c3cc(C)ccc3C)c3c(c2=O)CCCC3)cc1` (stereo not given): the inhibition is -23.7%.

Consider `CCc1cccc(NC(=O)CSc2ncc3c(n2)-c2ccccc2N(CC)S3(=O)=O)c1`, for which the inhibition was determined as 9.69%.

As to `CCC(=O)Nc1nnc(/C=C/c2ccc(OC)cc2)s1`, the inhibition is active: 35.4%.

Regarding `Cc1oc(-c2ccccc2)cc1C(=O)NC1CCN(Cc2ccccc2)CC1`, the inhibition was active: 69.4%.

For the molecule `O=C(NCCc1ccccc1)C(=O)NCC(c1ccco1)S(=O)(=O)c1ccccc1` (stereo not given), the inhibition is 17.6%.

Regarding `COCCCNC(=O)CCC(=O)NNc1nc2ccccc2c2nc(-c3ccccc3)nn12`, the inhibition is -2.72%.

As for `CCOc1ccc(NC(=O)CSc2nnc(-c3ccncc3)n2-c2ccccc2)cc1`, the inhibition is -1.1%.

Consider `COCCNC(=O)CSc1nc2cc3c(cc2c(=O)n1Cc1ccc(C(=O)NCCc2ccc(OC)c(OC)c2)cc1)OCO3`, for which the inhibition was 7.36%.

Regarding `Cc1ccc(N2C(=O)CS(=O)(=O)C23C(=O)N(C)c2ccccc23)cc1F` (stereo not given), the inhibition was -1.53%.

For the molecule `Cc1ccc(C)c(Nc2cc(C(=O)NCCCN(C)C3CCCCC3)c3ccccc3n2)c1`, the inhibition is 15.6%.

As to `Cc1ccc(N2CCN(C(=O)c3c(C)oc4ncnc(N5CCOCC5)c34)CC2)c(C)c1`, the inhibition was -13%.

Consider `COc1cc(NC(=O)NCC2CCN(Cc3ccc(C)cc3)CC2)cc(OC)c1OC`, for which the inhibition is -9.55% and active: 33.3%.

Consider `Cc1ccc(CN2CCCn3nc(C(=O)NCc4cc(C)ccc4C)cc3C2=O)cc1`, for which the inhibition was -10.9%.

On to `Cc1ccc(CNC(=O)c2cnc3c(-c4ccccc4)c(C)nn3c2C)o1`, for which the inhibition was -6.34%.

For `COc1ccc(N(CC(=O)N/N=C/c2ccc(C(=O)O)cc2)S(=O)(=O)c2ccc(NC(C)=O)cc2)cc1`, the inhibition was active: 56.2%.

`O=[N+]([O-])c1cc(-c2nc(-c3ccccn3)no2)ccc1NCc1ccccc1`: the inhibition stood at 7.67%.

`O=C(O)CCc1nnc2cnc3ccccc3n12`: the inhibition amounted to 0.459%.

For the molecule `Cc1ccc2ncc(C(=O)NC(C)c3ccccc3)c(=O)n2c1` (stereo not given), the inhibition came out at 11.5%.

As to `CC(=O)N1CCC2(CC1)OC(=O)C(C)=C2C(=O)NCc1cccc(Cl)c1`, the inhibition was -5.94%.

For `COCCNCCCOc1ccc(Br)cc1Cl`, the inhibition was active: 33.2%.

As to `CN(Cc1ccccc1)C(=O)C1CCC(CNS(=O)(=O)c2ccc3c(c2)CCCC(=O)N3)CC1` (stereo not given), the inhibition amounted to 7.69%.

Regarding `Cc1ccc2nc(NC(=O)c3nc(SCc4ccccc4C)ncc3Cl)sc2c1`, the inhibition is -6.18%.

With `Cc1ccc(N2CCN(C(=O)C3CCN(c4ncnc5c4nc4n5CCCCC4)CC3)CC2)c(C)c1`, the inhibition came to 5.4%.

With `COCCCNC(=O)c1cnn(-c2ccc(F)cc2F)c1C1CCNCC1`, the inhibition is -8.59%.

As for `Clc1ccc(Cl)c(OCCCCN2CCCCC2)c1`, the inhibition is active: 86.3%.

In the case of `O=C(Cn1c(=O)oc2cc(S(=O)(=O)NCc3ccccc3)ccc21)NCc1ccccc1Cl`, the inhibition was -17.5%.

Turning to `Nc1ccc2nc(-c3ccc(O)cc3)sc2c1`, the inhibition is -4.13%.

Regarding `Cc1ccc2scc(N3CCCCC3)c(=O)c2c1`, the inhibition came out at 0.646%.

For the molecule `CC(C(=O)Nc1ccc([N+](=O)[O-])cc1)N1CCN(C/C=C/c2ccccc2)CC1` (stereo not given), the inhibition is active: 52.7%.

With `COc1ccc(NC(=O)CC2C(=O)N(c3ccc(F)cc3)C(=O)N2CCc2sccc2C)cc1` (stereo not given), the inhibition turned out to be 6.45%.

Turning to `CCn1ccc2cc(S(=O)(=O)N3CCC(C(=O)NCCc4ccccc4)CC3)ccc21`, the inhibition is 18.9%.

Regarding `COc1cc(OC)c(NC(=O)c2c(C)oc3nc(C)nc(N4CCOCC4)c23)cc1Cl`, the inhibition stood at 5.27%.

On to `O=C(NCCN1CCN(C(=O)c2ccc(F)cc2)CC1)c1ccc(F)cc1`, for which the inhibition is active: 64%.

On to `COc1cccc(-n2cc(C(=O)OCc3ccc(Cl)cc3)c3ccccc3c2=O)c1`, for which the inhibition worked out at 26.1%.

In the case of `CCOc1ccc(-n2c(=O)c3c(C)c(C)sc3n(CC(=O)N3CCC(C)CC3)c2=O)cc1`, the inhibition was 2.14%.

`Cc1cccc(CNC(=O)c2ccc(C)c(-n3c(C)nc4cccnc43)c2)c1`: the inhibition is -0.298%.

Turning to `Cc1ccsc1C(=O)NNC(=O)c1csc(N2CCOCC2)n1`, the inhibition is active: 31.6%.

Take `O=C(NCc1ccccc1Cl)c1ccc(Cn2c(=O)c3cccn3c3cccnc32)cc1`: the inhibition was 10.3%.

In the case of `Cc1cc(C)c(NC(=O)CCCn2c(C)c3cnn(-c4ccccc4)c(=O)c3c2C)c(C)c1`, the inhibition is -3.46%.

Turning to `Cc1ccc(CCNC(=O)c2cn(C)c3ccc(S(=O)(=O)N4CCC(C)CC4)cc3c2=O)cc1`, the inhibition is -4.19%.

On to `CC(C)CC(=O)Nc1nnc(SCc2cc(=O)n3ccccc3n2)s1`, for which the inhibition was -7.21%.

On to `COc1cc(OC)cc(-c2nc3nc(C)c(CCC(=O)NCCC(C)C)c(C)n3n2)c1`, for which the inhibition is 20.3%.

For `O=c1c(S(=O)(=O)c2cccc(Cl)c2)cn(Cc2ccccc2)c2cc(N3CCCCC3)c(F)cc12`, the inhibition is -18.1%.
